# The full ranking holds about 13,000 compounds; the median of “IFI” is about 4, and the highest 2% start at about 17. The list shows a part of the results.
# Test: GSK_TCMDC: Inhibition Frequency Index (IFI). The number of non-kinase HTS assays where a compound showed > 50 % inhibition, expressed as a percentage of the number of such assays in which the compound was tested (-0 is zero)
# Format: functional
row,Structure (SMILES),IFI [%]
1,O=C(Nc1ccc(Br)cc1)Nc1ccc(Cn2ncc(N3CCCNCC3)c(Cl)c2=O)cc1,7.35
2,Cc1ccc(Oc2ccc(NC(=O)CNc3ccccc3N3CCCC3=O)cc2)cc1,1.61
3,CN1CCN(Cc2ccc(-c3cc4c(Nc5ccc(OCc6cccc(F)c6)c(Cl)c5)ncnc4s3)[nH]2)CC1,5.22
4,COc1cc2c(cc1OC)C(c1ccc(Br)cc1)CN(C)CC2 (centres undefined),1.49
5,CCc1c(C(=O)NC2CCC(N3CCC(c4ccccc4C)CC3)CC2)[nH]c2ccc(OC)cc12 (centres undefined),13.1
6,COc1ccc(CCN(C)CCCOc2ccc(NC(=O)c3cccc4c(=O)c5ccccc5[nH]c34)cc2)cc1OC,10.3
7,N=C(N)c1ccc(-c2cc(-c3cccc(C(=N)N)c3)on2)cc1,-0
8,COc1ccc2ncc(Cl)c(NCC3(O)CCC(NCc4ccc5c(n4)NC(=O)CS5)CC3)c2n1 (centres undefined),6.77
9,O=[N+]([O-])c1cccc(-n2nc(NCc3ccc(Cl)cc3)nc2-c2ccc(F)c(C(F)(F)F)c2)c1,2.44
10,Cc1ccc(NC(=O)Nc2ccc(Cn3ncc(N4CCCNCC4)c(Cl)c3=O)cc2)cc1,5.88
11,Oc1ccccc1CCNCC1CCc2ccccc2C1 (centres undefined),1.47
12,CCCN(CC1CC1)c1ncc(-c2cccc(CNCc3ccccc3O)c2)cn1,11.6
13,Cc1cc(NC(=O)c2coc3cc(F)c(N4CC(C)N(C)C(C)C4)cc23)ccc1-n1ccnc1 (centres undefined),1.42
14,COc1cccc(-c2cc3c(NCc4ccncc4)nccc3s2)c1,5.07
15,O=C(Nc1ccccc1-c1nc2ccccc2s1)C(Cl)(Cl)Cl,2.78
16,COc1ccc2[nH]c(C(=O)Nc3cccc(-c4ccc(CN(C)C)cc4)c3)cc2c1,3.33
17,CC(C)(C)C1CCc2onc(C(=O)Nc3cc(Cl)ccc3O)c2C1 (centres undefined),4.9
18,O=C(Cn1cc(C(F)(F)F)cc(Cl)c1=O)N1CCN(S(=O)(=O)c2ccc(Cl)cc2)CC1,-0
19,Clc1ccc(-c2cnc3ccc(NCCc4cccnc4)nn23)cc1,6.82
20,CC(C)c1ccc(CN2CCCCC(NC(=O)c3cc(-c4ccccc4Cl)cs3)C2)cc1 (centres undefined),5.45
21,O=C(N[C@H]1CCCC[C@H]1C(=O)O)c1ccccc1,0.75
22,COc1cc2nccc(Nc3cc(C)cc(O)c3)c2cc1OC,2.86
23,Cc1ccc(F)c(OC2CCN(c3ccc(C(=O)NC4CC4)cn3)CC2)c1,6.25

row,Structure (SMILES),IFI [%]
1,Cc1cccc2nc(-c3cccc(-c4cccc(NC(=O)CN5CCN(C)CC5)c4)c3)[nH]c12,1.8
2,NC(=O)c1cnc2ccc(-c3cncs3)cc2c1Nc1ccc(F)c(Cl)c1,6.43
3,CN1CCN(c2ccc(-c3cccc(NC(=O)c4cccc([N+](=O)[O-])c4)c3)nn2)CC1,2.41
4,CC(=O)Oc1cc(C)ccc1C1CCN(CCCCNC(=O)c2ccc(-c3ccc(C(F)(F)F)cc3)cc2)CC1,2.26
5,CC(=O)N/N=C/[C@H](CCc1ccccc1)NC(=O)[C@H](CC(C)C)NC(=O)c1cccc(OCCN2CCOCC2)c1,4.59
6,O=C(Nc1cc(C(F)(F)F)cc(C(F)(F)F)c1)c1cccc([N+](=O)[O-])c1,1.34
7,CC1CCN(Cc2cccc(C(=O)NCc3ccc(F)c(-c4cccc(CN5CCN[C@@H](C)C5)c4)c3)c2)CC1,5.04
8,CCOc1cc2ccccc2cc1CNCCCCCCNCc1cc2ccccc2cc1OCC,11.5
9,CC(C)(C)NS(=O)(=O)c1cc(C(=O)N2CCC(CCN3CCC(C(=O)c4ccc(F)cc4)CC3)(c3cccc(F)c3)CC2)c(Cl)cc1F,3.55
10,CN(Cc1ccccc1)C1CCN(c2cc(NC(=O)c3cccc(F)c3)ccn2)CC1,2.78
11,Cc1cc(=O)c2cc(Oc3ccc(OC(F)(F)F)cc3)ccc2[nH]1,5.13
12,O=C(Cc1ccccn1)Nc1cccc(-c2cccc(-c3nc4cc(C(F)(F)F)ccc4[nH]3)c2)c1,9.57
13,Cn1cncc1CCN(Cc1ccc(-c2ccc(C(F)(F)F)cc2)cc1)C(=O)Cn1c(SCc2cccc(F)c2F)cc(=O)c2ccccc21,5.22
14,CCC(O)(C#Cc1c(C)nc(N)nc1N)CC,2.16
15,C[C@H](NC(=O)c1c(CN2CCC(NC(=O)CC(C)(C)C)CC2)c(-c2cccs2)nc2ccccc12)C1CCCCC1,1.59
16,CN(C)CCCOc1cccc(NC(=O)Nc2ccc(Cl)c(Cl)c2)c1,2.19
17,N#Cc1cccc(NC(=O)Nc2cccc(OC3CCN(Cc4ccccc4)CC3)c2)c1,2.88
18,CC(=O)c1cccc2[nH]c(C(=O)NC3CCC(CCN4CCc5ccc(C#N)cc5C4)CC3)cc12 (centres undefined),1.48
19,CCCCCc1cc(OCCN(C)C)cc2c1C(=O)CC(C)(C)O2,2.13
20,N#Cc1ccc(OCCN(Cc2ccccc2C(F)(F)F)c2ccc(C#N)c(C(F)(F)F)c2)cc1,-0
21,COc1cc(C(=O)NC2CCN(Cc3ccccc3)CC2)ccc1-c1nc2cc(Cl)c(C)cc2[nH]1,0.76
22,O=C(Nc1ccc(-c2cccc(-c3nc4ccccc4[nH]3)c2)cc1)Nc1ccc(Cl)c(Cl)c1,6.06
23,O=C(NC1CCN(Cc2ccccc2)CC1)c1cc(-c2ccncc2)nc2ccc(Cl)cc12,1.79

row,Structure (SMILES),IFI [%]
1,O=C(N[C@@H](Cc1ccccc1)C(=O)NCCN1CCCCC1)c1ccc(O)c(-c2ccc(Cl)c(Cl)c2)c1,5
2,Cc1cc2[nH]c(-c3ccc(C(=O)NCCCN4CCN(c5cccc(Cl)c5)CC4)cc3F)nc2cc1Cl,0.77
3,Nc1nc(N)c2c(ccc3c2ccn3CCCC2CCCNC2)n1 (centres undefined),2.8
4,N#Cc1cccc(COC(=O)C2=C(COc3ccccc3Cl)NC(=O)NC2c2c[nH]c3cnccc23)c1 (centres undefined),3.64
5,Oc1c(Cl)cc(Nc2nccc(Nc3ccc(Oc4ccccc4)cc3)n2)cc1Cl,2.31
6,COc1cccc(-c2ccc(O)c(CNCCc3cccc(F)c3)c2)n1,2.7
7,CCc1ccc(NC(=O)c2ccc(CN3CCCN(Cc4cccs4)CC3)cc2)cc1,6.35
8,O=C(Nc1ccc(NC2=NCCN2)cc1)c1ccc(C(=O)Nc2ccc(NC3=NCCN3)cc2)cc1,2.27
9,O=C(Nc1ccc(OC2CCN(Cc3ccsc3)C2)c(Cl)c1)c1ccsc1 (centres undefined),0
10,Oc1cccc2ccc(Nc3ccccn3)nc12,11.3
11,CN(CCN(C)CC(O)c1ccc(Cl)c(Cl)c1)CC(O)c1ccc(Cl)c(Cl)c1 (centres undefined),3.76
12,CN1CCN(CCCCCNc2c3ccccc3nc3ccccc23)CC1,5.63
13,O=C(Nc1ccc(Cl)cc1)Nc1cccc(-c2cccc(-c3nc4cc(C(F)(F)F)ccc4[nH]3)c2)c1,9
14,Cc1cc2nc(-c3ccc(/C=C/C(=O)NC4CCN(Cc5ccccc5)CC4)cc3)[nH]c2cc1C,3.76
15,Cc1ccccc1OCC(O)CN1CCC(C2CCN(CC(O)COc3ccccc3C)CC2)CC1 (centres undefined),5.8
16,C[C@@H](Oc1cc(-n2cnc3ccc(NC(=O)NC(C)(C)C)cc32)sc1C(N)=O)c1ccccc1Cl,7.35
17,COc1ccc2nccc([C@@H](O)CN3CCC(NC(=O)C(=Cc4ccc(Cl)cc4Cl)c4ccc(-c5ccccc5)cc4)CC3)c2c1,0.74
18,CCN(CC)S(=O)(=O)c1ccc(C=CC(=O)Nc2cc(Cl)ccc2N2CCOCC2)cc1,1.61
19,CCCCCn1c(Sc2ccc(C#N)c([N+](=O)[O-])c2)nnc1-c1cccc(Cl)c1,7.04
20,Cc1cc(C(=O)N[C@H]2CCN(Cc3ccc(OCCCN(C)C)cc3)C2)ccc1Br,6.67
21,CCCCCOc1ccc(/N=C2\C=C(O)C(=O)c3ccccc32)cc1,2.92
22,CNC(=O)c1ccc2nc(-c3ccc(-c4ccccc4)cc3)n(CC3CCN(CC4CCCC4)CC3)c2c1,4.13
23,COc1ccc2nccc([C@@H](O)CN3CCC(NCc4nc5ccc(F)cc5[nH]4)CC3)c2c1,0.73

row,Structure (SMILES),IFI [%]
1,CSc1nc2cc3c(cc2n1C(=O)c1ccc(C)cc1)OCCO3,2.53
2,COc1cc2c(cc1OC)CN(CCCCc1ccc(NC(=O)c3cc(Cl)cc(Cl)c3)cc1)CC2,3.57
3,Cc1cccc2nc(-c3cccc(-c4cccc(CNCCN5CCNCC5)c4)c3)[nH]c12,8.91
4,O=C1COc2ccc3ccccc3c21,-0
5,O=C(Nc1cccc(CN2CCCN(Cc3cccc(Cl)c3)CC2)c1)c1ccc(Cl)c(Cl)c1,7.43
6,C[C@H](Cc1ccc(Oc2ccc(C[C@@H](C)NC[C@H](O)c3cccc(Cl)c3)cc2)cc1)NC[C@H](O)c1cccc(Cl)c1,20.8
7,CCNc1cc(C(=O)N[C@@H](Cc2ccccc2)[C@H](O)CNC2(Cc3cccc(Cl)c3)CCC2)cc(N2CCCCS2(=O)=O)c1,5.93
8,CCOc1cc(NC(=O)Nc2ccnc3ccccc23)cc(OC)c1,4.29
9,CCCCN(CCCC)CCCN(CCCN(CCCC)CCCC)c1cc(C)nc(Nc2ccc(Br)cc2)n1,14
10,Cc1[nH]c2c(NCc3ccc(F)cc3)nccc2c1C,5.36
11,CCCCOc1c(CCC)cc(Cc2cnc(N)nc2N)cc1CCC,10.1
12,CC(=O)N(C)C1CCN(Cc2cccc(-c3ccc(-c4nc5cc(C(F)(F)F)ccc5[nH]4)cc3)c2)C1 (centres undefined),2.82
13,CC(=O)N1N=C(c2ccc(Cl)cc2)Sc2c1nc(C1CCCCC1)n2C(C)=O,1.61
14,O=C1CCCN1CCCNCc1ccc(-c2cccc(-c3nc4cc(C(F)(F)F)ccc4[nH]3)c2)cc1,6.8
15,O=C(NC(=S)NCc1ccncc1)c1ccccc1,-0
16,COc1ccc2nccc([C@@H](O)CN3CCC(NCc4cc5c(F)ccc(F)c5[nH]4)CC3)c2c1,9.15
17,O=C(Nc1ccc(C(F)(F)F)cc1)c1cccc(S(=O)(=O)NC2CCN(CC3CCCCC3)CC2)c1,11.9
18,COc1ccc(S(=O)(=O)NC2CCN(CCCOc3ccnc4cc(Cl)ccc34)C2)cc1OC (centres undefined),0.88
19,CCN(CC)CCN(Cc1ccc(-c2ccc(C(F)(F)F)cc2)cc1)C(=O)Cn1c(CCc2cc(F)c(F)c(F)c2)nc(=O)c2ccccc21,6.67
20,CC(C)CNCc1ccc(-c2cccc(CN(CCN(C)C)C(=O)CCC3CCCC3)c2)cc1,9.15
